Not every entry of the source has a single result; some have several. This is not the full list of results. The source may hold further records. Results that share an entry are repeated measurements in other runs, samples, wells, individuals or studies. Signs of the kind (2×) stand for listed records that agree.

The assay relates to KRAS PDC tumor spheroids (HUVEC+MSC), viability. The experiment in a line: Anticancer human tumor 254851-301-R-J1-PDC patient-derived colon carcinoma cell line growth inhibition [KRAS2]. The note with it: for IC50: compound alone; for viability, T/C: stronger effect = lower value. An excerpt: Multicellular complex tumor spheroid response to RAS pathway inhibitors in combination with a targeted agents in patient-derived cell lines with oncogenic KRAS variants from multiple cancer types
A high-throughput screen of multi-cell type tumor spheroids was designed to identify active combinations of targeted small molecules and KRAS pathway inhibitors. Complex spheroids include a stromal component modeled by human endothelial cells (HUVEC) and fibroblasts modeled by human mesenchymal stem cells (MSCs). The concentration ranges selected for each drug and investigational agent were based upon clinically achievable concentrations if the clinical Cmax of the agent was known.
Compounds. The drugs and investigational agents: BI-3406 (NSC825286), BAY-293 (NSC824723), batoprotafib (TNO155; NSC825523), sotorasib (AMG 510; NSC818433), MRTX1257 (NSC819558), elimusertib (BAY 1895344; NSC800525), molibresib (GSK525762; NSC774829), temuterkib (LY3214996; NSC803410), venetoclax (NSC766270), alisertib (NSC759677), olaparib (NSC753686), talazoparib (NSC767125), erdafitinib (NSC781556), ipatasertib (NSC767898), cabozantinib (NSC761068), nintedanib (NSC756659), abemaciclib (NSC768073), docetaxel (NSC628503), trametinib (NSC758246), and sapanisertib (NSC764658) were obtained from the National Cancer Institute (NCI) Developmental Therapeutics Program Chemical Repository. The FDA-approved anticancer drug set is available from the Developmental Therapeutics Program. […] The stock solutions were prepared in dimethyl sulfoxide (DMSO, Sigma-Aldrich, St. Louis, MO, cat. D2650) at 800-fold the tested concentration and stored at -70 degrees C prior to their use. All drugs and investigational agents were tested over a range starting from a high concentration at or near the clinical Cmax and decreasing in half-log increments. If the clinical Cmax for an agent had not been determined, the highest concentration tested was 10 microM.
Cell Culture. All cells were maintained in an incubator at 37 degrees C and 5% CO2 with 95% humidity. The PDC lines were cultured according to standard operating procedures established by the NCI PDMR (https://pdmr.cancer.gov/sops/default.htm). Briefly, all PDCs were thawed and cultured in Matrigel-coated flasks prepared with a working solution of 1X Ham's F-12 nutrient mix, without supplementation (Invitrogen, Waltham, MA, cat. 11765054), 100 U/mL penicillin-streptomycin (Invitrogen, cat. 15140122), and 2.5% Matrigel (Corning Inc., Corning, NY, cat. 354248) for the first three passages. All PDCs were cultured in complete DMEM/F-12 media containing advanced DMEM/F-12 (Invitrogen, cat. 12634028), 4.9% defined fetal bovine serum, heat inactivated (HyClone Laboratories Inc., Logan, UT, cat. SH30070.03HI), 389 ng/mL hydrocortisone (Sigma-Aldrich, cat. H4001), 9.7 ng/mL human EGF recombinant protein (Invitrogen, cat. PHG0313), 23.4 microg/mL adenine (Sigma-Aldrich, cat. A2786), 97.3 U/mL penicillin-streptomycin (Invitrogen, cat. 15140122), 1.9 mM L-glutamine (Invitrogen, cat. 25030081), and 9.7 microM Y-27632 dihydrochloride (Tocris Bioscience, Bristol, United Kingdom, cat. 1254). The PDCs were cultured in complete DMEM/F12 media without 9.7 microM Y-27632 dihydrochloride for at least two passages prior to the screen. The established cell line HOP-62 was cultured in RPMI 1640 medium, HEPES (Invitrogen, cat. 22400105) with 10% defined fetal bovine serum (HyClone Laboratories Inc., cat. SH30070.03) and 2 mM L-glutamine (Invitrogen, cat. 25030081). The pooled donor HUVEC were cultured in endothelial cell growth medium 2 (PromoCell, Heidelberg, Germany, cat. C-22011) and the hMSC were cultured in mesenchymal stem cell growth medium 2 (PromoCell, cat. C-28009). For all experiments, HUVEC and hMSC were used at passages </=5, while the malignant cell lines were used at passages </=15. […]
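Further: spheroids exposed to compounds for seven days before readout.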
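Wherever viability, T/C is given: 100% = DMSO vehicle control luminescence of the spheroids.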

Broadly, the IC50 is the concentration that inhibits the measured activity by half. In the case of `CCN1CCN(Cc2ccc(Nc3ncc(F)c(-c4cc(F)c5nc(C)n(C(C)C)c5c4)n3)nc2)CC1`, the IC50 is recorded as 707 nM, 646 nM, > 1 µM, 771 nM, 703 nM.

Turning to `COc1cc2nccc(Oc3ccc(NC(=O)C4(C(=O)Nc5ccc(F)cc5)CC4)cc3)c2cc1OC`, the viability, T/C (compound alone 3.16 µM) is 106, 104, 100, 53.3, 101% and the viability, T/C (compound alone 10 µM) is given as 70.1, 67.5, 57, 92, 56.5%.

With `CNCc1ccccc1-c1csc(C(C)Nc2nc(C)nc3cc(OC)c(OC)cc23)c1` (centres undefined), the viability, T/C was 81.4, 84, 97.9, 94.8, 99.4, 100, 110, 105, 96.3, 91.2, 95.1, 88.4, 92.1, 99.5, 102, 90.2, 93.8% (compound alone 1 µM) and 88.7, 94.5, 76.8, 68.7, 76, 70.6, 84.1, 69.3, 79.3, 73.6, 67.8, 35.6, 48, 30.9, 42.4, 32.8, 36.7% (compound alone 3.16 µM).

Turning to `CC(C)NCC(C(=O)N1CCN(c2ncnc3c2C(C)CC3O)CC1)c1ccc(Cl)cc1` (centres undefined), where the note is “compound alone 3.16 µM”, the viability, T/C is reported as 110, 104, 95.7, 42.6, 106%.

On to `C=CC(=O)N1CCN(c2nc(=O)n(-c3c(C)ccnc3C(C)C)c3nc(-c4c(O)cccc4F)c(F)cc23)C(C)C1` (centres undefined), for which the viability, T/C was 101 (2×), 103, 91.9, 94.9, 76.8, 109, 107, 108 (2×), 94.5, 86.7, 114, 98.9, 104, 97.2, 91.8% (compound alone 0.316 µM); 94.5, 111, 105, 85.8, 99.4, 106 (2×), 103, 100, 95.2 (2×), 95.7, 101, 82.7, 115, 83.4, 88.1% (compound alone 1 µM); 96.8, 114, 102 (2×), 91.9, 103 (2×), 108, 106, 112, 98.6, 94.6, 89.2, 104, 72.6, 74.1, 67.3% (compound alone 3.16 µM); 93.3, 97.4, 104, 91.3, 110, 109 (2×), 115, 108, 105 (2×), 100, 93.2, 92.7, 99.2, 80, 71.5% (compound alone 10 µM).

`CCNC(=O)CC1N=C(c2ccc(Cl)cc2)c2cc(OC)ccc2-n2c(C)nnc21` (centres undefined): the viability, T/C is 83.6, 84.4, 98.7, 66.8, 92.6% (compound alone 3.16 µM) and 67.6, 74.7, 73.2, 29.8, 76% (compound alone 10 µM).

Regarding `COc1cc(OC)cc(N(CCNC(C)C)c2ccc3ncc(-c4cnn(C)c4)nc3c2)c1`, the IC50 is on record as 6.12 µM, 6.52 µM, 6.44 µM, 630 nM, 6.98 µM. Where the note is “compound alone 1 µM”, the viability, T/C was 78, 88, 110, 10.5, 108%. Further, the viability, T/C (compound alone 3.16 µM) is on record as 72.6, 76.5, 67.4, 35.1, 76.3%. For the same molecule, the viability, T/C (compound alone 10 µM) was 35.3, 35.6, 39.2, 0.19, 38.1%.

For `CC1OCC2(CCN(c3cnc(Sc4ccnc(N)c4Cl)c(N)n3)CC2)C1N` (centres undefined), the viability, T/C is, setting by setting: (compound alone 0.316 µM) 80.8, 97.4 (2×), 94.9 (2×), 95.9, 103, 107, 90.6, 96.7, 91.9, 73.8, 95.4, 91.3, 86.7, 104, 88.7, 96.4, 95.3%; (compound alone 3.16 µM) 63, 71.1, 71.7, 66.6, 63.3, 72.2, 79.8, 73.5, 68.6, 71.2, 68.9, 76.8, 77.7, 80, 47, 68.3, 52.8, 67.2, 66.4, 76.6%; (compound alone 10 µM) 64.1, 72.9, 70.5, 65.3 (2×), 71, 73.6, 69.1, 58.1, 63.6, 62.8, 58.4, 67.9, 69.4, 73.2, 65, 35.2, 72.1, 76.1, 76.8%.

Turning to `C=CC(=O)N1CCN(c2nc(OCC3CCCN3C)nc3c2CCN(c2cccc4cccc(C)c24)C3)CC1CC#N` (centres undefined), the viability, T/C is 97.6, 89.8, 109 (2×), 90.6, 97.4, 102, 100, 83.7, 98.5, 103 (2×), 82.6, 90.5, 94.7, 97.3, 86% (compound alone 0.316 µM); 95, 103, 90.5, 87.9, 95.7, 96, 101, 102, 94.6, 92.4, 89.5, 61.2, 66, 72.6, 68, 70.9, 73.1% (compound alone 1 µM); 100, 69.1, 63.5, 71.3, 64, 64.3, 66.5, 54.4, 51.4, 68, 60.6, 59.7, 60.7, 68.4, 55, 62% (2×) (compound alone 3.16 µM).

With `COc1cc2nc(C)nc(NC(C)c3cc(N)cc(C(F)(F)F)c3)c2cc1OC1CCOC1` (centres undefined), the viability, T/C reads like this: (compound alone 0.1 µM) 105 (2×), 108 (2×), 97.7, 92.6, 106, 104 (2×), 113, 95.5, 94.7, 91.1, 89.3, 82, 64.3, 85.3%; (compound alone 0.316 µM) 87.7, 94, 92.5, 88.5, 107, 94.8, 104, 98.2, 82.4, 91.1, 96.8, 96.3, 102, 81, 112, 99.3, 97.8%; (compound alone 3.16 µM) 93.5, 87.4, 87.3, 101, 91.2, 89.6, 92.4, 85.8, 88.2, 89.8, 84.5, 54.1, 71.3, 76.5, 65.8, 81.7, 82.6%; (compound alone 10 µM) 83.5, 82.7, 100, 73.7, 81.4, 79.1 (2×), 68.1, 82.8, 80.6, 71.9, 78.8, 84.9, 88.3, 96.3, 79.7, 73.1%.

Turning to `CC1COCCN1c1cc(-c2ccnn2C)c2ccnc(-c3ccn[nH]3)c2n1` (centres undefined), the IC50 is reported as 286, 364, 405, 104, 285 nM. Further, the viability, T/C (compound alone 0.0316 µM) is 90.5, 95.1, 100, 55.1, 91%. Besides, under “compound alone 0.1 µM”, the viability, T/C was 65.2, 67.1, 72.1, 40.4, 63.8%.

For the origin of these results see PubChem BioAssay AID1963868 (Molecular Pharmacology Branch, DTP, NCI, 2024).
